Experimental data published in publication PMC553980.
Results are given in words; binding and its absence hold for the method and conditions named. Some entries that bind do so weakly or less than the wild type. One block for each binder: values may come before it.

Target: T1, AtRaptor1B, full length (Arabidopsis) (UniProt Q93YQ1)
T1 sequence: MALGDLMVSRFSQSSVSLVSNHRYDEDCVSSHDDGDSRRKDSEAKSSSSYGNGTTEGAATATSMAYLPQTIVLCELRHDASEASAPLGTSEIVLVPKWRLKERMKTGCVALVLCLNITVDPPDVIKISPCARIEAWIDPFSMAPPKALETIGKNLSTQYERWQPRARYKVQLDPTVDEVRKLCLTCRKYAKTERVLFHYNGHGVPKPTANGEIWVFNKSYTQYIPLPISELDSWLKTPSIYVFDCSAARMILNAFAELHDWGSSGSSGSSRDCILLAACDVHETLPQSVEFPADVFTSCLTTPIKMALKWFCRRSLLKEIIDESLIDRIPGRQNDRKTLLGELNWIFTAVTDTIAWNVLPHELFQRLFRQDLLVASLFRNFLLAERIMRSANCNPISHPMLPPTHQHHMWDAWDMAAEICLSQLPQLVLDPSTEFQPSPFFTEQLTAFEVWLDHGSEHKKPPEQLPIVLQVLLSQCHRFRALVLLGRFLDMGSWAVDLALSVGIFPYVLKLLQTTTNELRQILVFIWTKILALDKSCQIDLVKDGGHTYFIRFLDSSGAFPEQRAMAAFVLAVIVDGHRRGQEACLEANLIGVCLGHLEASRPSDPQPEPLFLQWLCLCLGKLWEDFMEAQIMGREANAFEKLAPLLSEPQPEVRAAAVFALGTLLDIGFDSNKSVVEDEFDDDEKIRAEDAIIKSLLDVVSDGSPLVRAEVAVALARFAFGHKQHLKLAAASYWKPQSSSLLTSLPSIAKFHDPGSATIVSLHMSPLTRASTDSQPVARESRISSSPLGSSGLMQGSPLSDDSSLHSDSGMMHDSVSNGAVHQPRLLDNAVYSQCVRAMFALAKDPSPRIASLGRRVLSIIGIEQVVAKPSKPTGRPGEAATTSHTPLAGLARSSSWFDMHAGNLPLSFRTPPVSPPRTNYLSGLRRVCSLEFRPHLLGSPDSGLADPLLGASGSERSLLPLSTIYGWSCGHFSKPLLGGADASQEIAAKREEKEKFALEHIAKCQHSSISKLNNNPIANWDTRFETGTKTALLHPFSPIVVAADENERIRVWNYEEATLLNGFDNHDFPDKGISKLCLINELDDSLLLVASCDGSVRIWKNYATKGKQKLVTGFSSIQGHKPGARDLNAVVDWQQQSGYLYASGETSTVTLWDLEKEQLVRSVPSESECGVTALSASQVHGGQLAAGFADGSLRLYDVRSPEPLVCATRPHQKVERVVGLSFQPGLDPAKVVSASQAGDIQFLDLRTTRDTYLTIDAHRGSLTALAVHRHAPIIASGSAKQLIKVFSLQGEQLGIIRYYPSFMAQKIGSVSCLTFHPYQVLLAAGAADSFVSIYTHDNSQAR
Assay: two-hybrid; AH109 yeast co-transformed with AML1 or its fragments in pGADT7 (AD) and AtRaptor1B in pGBKT7 (BD); growth on medium lacking leucine, tryptophan, histidine and adenine; colonies observed 3-7 days after transformation

binding: no binding
B1: AML1 fragment 155–412 (domain or fragment, UniProt Q8W4I9 155-412)
chain: VTGEVGRKSRANTGDELDEFDLFSSVGGMELDGDIFSSVSHRNGERGGNNSVGELNRGEIPSRTLLVGNISSNVEDYELKVLFEQFGDIQALHTACKNRGFIMVSYCDIRAAQNAARALQNKLLRGTKLDIRYSISKENPSQKDTSKGALLVNNLDSSISNQELNRLVKSYGEVKEIRRTMHDNSQIYIEFFDVRAAAAALGGLNGLEVAGKKLQLVPTYPEGTRYTSQCAANDTEGCLPKTSYSNTSSGHIGRHFPG

binding: binds
B2: Arabidopsis Mei2-like 1 (AML1), full length (protein, UniProt Q8W4I9 1-915)
chain: MPSDIMEQRGVSTPSHFHEDIHITSERQFGFMKTDMMPENQGGRDRLSSMPKSSWTSESYQLKPQSSFSGSHPSGSPNARNTTNGSQWESSLFSSSMSDLFSRKLRLQGSDMLSTMSANTVVTHREEEPSESLEEIEAQTIGNLLPDEDDLFAEVTGEVGRKSRANTGDELDEFDLFSSVGGMELDGDIFSSVSHRNGERGGNNSVGELNRGEIPSRTLLVGNISSNVEDYELKVLFEQFGDIQALHTACKNRGFIMVSYCDIRAAQNAARALQNKLLRGTKLDIRYSISKENPSQKDTSKGALLVNNLDSSISNQELNRLVKSYGEVKEIRRTMHDNSQIYIEFFDVRAAAAALGGLNGLEVAGKKLQLVPTYPEGTRYTSQCAANDTEGCLPKTSYSNTSSGHIGRHFPGMISSTSSDGGSMRVIHNSIGSPVNSFIERHRSLSIPIGFPPSANGISASKPVGLQEHGHHFDNSNMGIQSMPNLHPHSFSEYVDNFANGSPYTSSAFSEMVSDGSKANEGFMIHNVRGVEGFSGGGIGSPMHQSSRRPINLWSNSNTQQQNPSSGMMWPNSPSHINSIPTQRPPVTVFSRAPPIMVNMASSPVHHHIGSAPVLNSPFWDRRQAYVAESLESSGFHIGSHGSMGIPGSSPSHPMDIGSHKTFSVGGNRMDVNSQNAVLRSPQQLSHLFPGRSPMGSMPGSFDSPNERYRNLSHRRSESSSSNADKKLYELDVDRILRGEDRRTTLMIKNIPNKYTSKMLLSAIDEHCKGTYDFLYLPIDFKNKCNVGYAFINLIEPEKIVPFFKAFNGKKWEKFNSEKVATLTYARIQGKTALIAHFQNSSLMNEDKRCRPILFHTDGPNAGDQEPFPMGSNIRSRPGKPRSSSIDNYNSFSISSVSENREETPNGTDPFLKEN

binding: binds
B3: AML1 fragment N412 (domain or fragment, UniProt Q8W4I9 1-412)
chain: MPSDIMEQRGVSTPSHFHEDIHITSERQFGFMKTDMMPENQGGRDRLSSMPKSSWTSESYQLKPQSSFSGSHPSGSPNARNTTNGSQWESSLFSSSMSDLFSRKLRLQGSDMLSTMSANTVVTHREEEPSESLEEIEAQTIGNLLPDEDDLFAEVTGEVGRKSRANTGDELDEFDLFSSVGGMELDGDIFSSVSHRNGERGGNNSVGELNRGEIPSRTLLVGNISSNVEDYELKVLFEQFGDIQALHTACKNRGFIMVSYCDIRAAQNAARALQNKLLRGTKLDIRYSISKENPSQKDTSKGALLVNNLDSSISNQELNRLVKSYGEVKEIRRTMHDNSQIYIEFFDVRAAAAALGGLNGLEVAGKKLQLVPTYPEGTRYTSQCAANDTEGCLPKTSYSNTSSGHIGRHFPG

binding: no binding
B4: AML1 fragment 155–219 (domain or fragment, UniProt Q8W4I9 155-219)
chain: VTGEVGRKSRANTGDELDEFDLFSSVGGMELDGDIFSSVSHRNGERGGNNSVGELNRGEIPSRTL

binding: no binding
B5: AML1 fragment 402–704 (domain or fragment, UniProt Q8W4I9 402-704)
chain: SSGHIGRHFPGMISSTSSDGGSMRVIHNSIGSPVNSFIERHRSLSIPIGFPPSANGISASKPVGLQEHGHHFDNSNMGIQSMPNLHPHSFSEYVDNFANGSPYTSSAFSEMVSDGSKANEGFMIHNVRGVEGFSGGGIGSPMHQSSRRPINLWSNSNTQQQNPSSGMMWPNSPSHINSIPTQRPPVTVFSRAPPIMVNMASSPVHHHIGSAPVLNSPFWDRRQAYVAESLESSGFHIGSHGSMGIPGSSPSHPMDIGSHKTFSVGGNRMDVNSQNAVLRSPQQLSHLFPGRSPMGSMPGSFDS

binding: binds
B6: AML1 fragment N219 (domain or fragment, UniProt Q8W4I9 1-219)
chain: MPSDIMEQRGVSTPSHFHEDIHITSERQFGFMKTDMMPENQGGRDRLSSMPKSSWTSESYQLKPQSSFSGSHPSGSPNARNTTNGSQWESSLFSSSMSDLFSRKLRLQGSDMLSTMSANTVVTHREEEPSESLEEIEAQTIGNLLPDEDDLFAEVTGEVGRKSRANTGDELDEFDLFSSVGGMELDGDIFSSVSHRNGERGGNNSVGELNRGEIPSRTL

binding: no binding
B7: AML1 fragment 402C (domain or fragment, UniProt Q8W4I9 402-915)
chain: SSGHIGRHFPGMISSTSSDGGSMRVIHNSIGSPVNSFIERHRSLSIPIGFPPSANGISASKPVGLQEHGHHFDNSNMGIQSMPNLHPHSFSEYVDNFANGSPYTSSAFSEMVSDGSKANEGFMIHNVRGVEGFSGGGIGSPMHQSSRRPINLWSNSNTQQQNPSSGMMWPNSPSHINSIPTQRPPVTVFSRAPPIMVNMASSPVHHHIGSAPVLNSPFWDRRQAYVAESLESSGFHIGSHGSMGIPGSSPSHPMDIGSHKTFSVGGNRMDVNSQNAVLRSPQQLSHLFPGRSPMGSMPGSFDSPNERYRNLSHRRSESSSSNADKKLYELDVDRILRGEDRRTTLMIKNIPNKYTSKMLLSAIDEHCKGTYDFLYLPIDFKNKCNVGYAFINLIEPEKIVPFFKAFNGKKWEKFNSEKVATLTYARIQGKTALIAHFQNSSLMNEDKRCRPILFHTDGPNAGDQEPFPMGSNIRSRPGKPRSSSIDNYNSFSISSVSENREETPNGTDPFLKEN

binding: no binding
B8: AML1 fragment N163 (domain or fragment, UniProt Q8W4I9 1-163)
chain: MPSDIMEQRGVSTPSHFHEDIHITSERQFGFMKTDMMPENQGGRDRLSSMPKSSWTSESYQLKPQSSFSGSHPSGSPNARNTTNGSQWESSLFSSSMSDLFSRKLRLQGSDMLSTMSANTVVTHREEEPSESLEEIEAQTIGNLLPDEDDLFAEVTGEVGRKS

binding: no binding
B9: AML1 fragment 695C (domain or fragment, UniProt Q8W4I9 695-915)
chain: MGSMPGSFDSPNERYRNLSHRRSESSSSNADKKLYELDVDRILRGEDRRTTLMIKNIPNKYTSKMLLSAIDEHCKGTYDFLYLPIDFKNKCNVGYAFINLIEPEKIVPFFKAFNGKKWEKFNSEKVATLTYARIQGKTALIAHFQNSSLMNEDKRCRPILFHTDGPNAGDQEPFPMGSNIRSRPGKPRSSSIDNYNSFSISSVSENREETPNGTDPFLKEN
